Source: PubChem BioAssay AID360 (National Center for Advancing Translational Sciences (NCATS), 2006)
Out of some 48,000 compounds screened, about 550 (1.1%) were called active. Not shown: some 4% with an inconclusive outcome. Cut-off read from the data, not from the text of the source: active = potency below about 15 µM; inconclusive = mostly about 16 µM to 33 µM; inactive = weaker than that. This is one part of the list.

These compounds were tested against Lysosomal acid glucosylceramidase (Homo sapiens) (UniProt P04062) (assay: Glucocerebrosidase). Conditions: purified enzyme, resorufin glucoside fluorescence (screen aimed at inhibitors), 20 min.
How it was run: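 Wild-type enzyme at 0.2 nM final in 50mM citric acid/KH2PO4, 10mM sodium taurocholate, 0.01% tween-20, pH 5.9, with resorufin beta-D-glucopyranoside at 30 uM final. Compounds titrated, 20 min at RT, red fluorescence read; AC50 from titration.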
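Note: the screen sought inhibitors.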
Potency is the fitted concentration of half-maximal effect.

Chain of UniProt P04062 (P04062 whole entry, looked up): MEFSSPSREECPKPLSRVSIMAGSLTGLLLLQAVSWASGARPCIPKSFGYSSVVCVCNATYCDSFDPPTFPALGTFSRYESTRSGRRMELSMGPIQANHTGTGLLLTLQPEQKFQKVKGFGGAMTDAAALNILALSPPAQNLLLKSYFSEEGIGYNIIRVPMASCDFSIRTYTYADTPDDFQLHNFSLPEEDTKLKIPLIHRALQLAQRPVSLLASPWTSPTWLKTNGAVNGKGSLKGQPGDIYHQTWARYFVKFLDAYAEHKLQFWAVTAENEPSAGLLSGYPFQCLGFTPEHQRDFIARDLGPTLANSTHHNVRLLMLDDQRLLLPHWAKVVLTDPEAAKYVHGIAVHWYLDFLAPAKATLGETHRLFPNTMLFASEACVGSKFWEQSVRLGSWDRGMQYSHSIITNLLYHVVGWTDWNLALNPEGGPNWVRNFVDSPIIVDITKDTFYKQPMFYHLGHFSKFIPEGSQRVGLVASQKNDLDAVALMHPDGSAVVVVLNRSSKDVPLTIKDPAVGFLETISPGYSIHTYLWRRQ

Potency, inactive:
CCn1c(=O)c(C(=O)Nn2c(C)nc3ccccc3c2=O)c(O)c2ccccc21 > 76.9 µM
O=C(c1cccc(S(=O)(=O)NCCOc2ccccc2)c1)N1CCN(c2ncccn2)CC1 > 76.9 µM
CCOCCOC(=O)CCSc1n[nH]c(=O)[nH]c1=O > 76.9 µM
O=C(Nc1c(C(=O)O)[nH]c2ccccc12)NC1CCCCC1 > 76.9 µM
O=C(CN1C(=O)CSC1=O)Nc1ccc2c(c1)OCCO2 > 76.9 µM
O=C(C1CCN(C2CC(=O)N(Cc3ccccc3)C2=O)CC1)N1CCCCCC1 (centres undefined) > 76.9 µM
CCCCC(=O)Nc1ccc(C(N)=O)cc1 > 76.9 µM
COc1ccccc1NC(=O)CSc1nnc(CNC(=O)COc2ccc(Cl)cc2)o1 > 76.9 µM
CCCC(=O)Nc1cc(OCC)c(NC(=O)NC2CCCCC2)cc1OCC > 76.9 µM
CCCCCCNC(=O)c1c(O)c2cccc3c2n(c1=O)CCC3
O=S(=O)(NCCSc1nnnn1-c1ccccc1)c1cccs1 > 76.9 µM
CCN(CC)S(=O)(=O)c1ccc(NC(=O)C(OC)c2ccccc2)cc1 (centres undefined) > 76.9 µM
Cc1cc(=O)oc(C)c1C(=O)NCC1COc2ccccc2O1 (centres undefined) > 76.9 µM
Cn1nc(C(C)(C)C)cc1C(=O)NCc1ccc(N2CCCC2=O)cc1 > 76.9 µM
COC(=O)c1ccccc1NC(=O)c1ccco1 > 76.9 µM
O=C(CSc1nnc(-c2ccco2)o1)NC1CC2CCC1C2 (centres undefined) > 76.9 µM
COc1cc(C)c(S(=O)(=O)Nc2ccc(CC(=O)O)cc2)cc1C > 76.9 µM
CCOC(=O)Cn1nc(-c2ccc(Cl)cc2)ccc1=O > 76.9 µM
Cc1ccc(CNc2nc3c([nH]2)c(=O)n(C)c(=O)n3C)cc1 > 76.9 µM
COc1ccccc1NC(=O)C1CCN(c2ncccn2)CC1 > 76.9 µM
Cc1cccc(C)c1NC(=O)CSc1nnc(-c2ccoc2C)n1C > 76.9 µM
CCOC(=O)C1=C(C)NC(=O)NC1c1cc2c(cc1Br)OCO2 (centres undefined) > 76.9 µM
N#CC(C(=O)NC1CCCCC1)c1nc2ccccc2nc1N1CCOCC1 (centres undefined) > 76.9 µM
Cc1cc(C)nc(NS(=O)(=O)c2ccc(NC(=O)CCC3COc4ccccc4O3)cc2)n1 (centres undefined) > 76.9 µM
Cn1c(COc2ccccc2)nnc1SCc1nc2ccccc2[nH]1 > 76.9 µM
CCN(CC)S(=O)(=O)c1cccc(C(=O)Nc2ccccc2)c1 > 76.9 µM
CC(C)(O)C#Cc1ccc(C(=O)N2CCCC2C(=O)O)s1 (centres undefined) > 76.9 µM
O=C(Nc1ccc(F)cc1)c1ccc(S(=O)(=O)NCC2CCCO2)cc1 (centres undefined) > 76.9 µM
CCOC(=O)C1=C(C)NC(=O)NC1c1ccc(NC(C)=O)cc1 (centres undefined) > 76.9 µM
CCN(CC(=O)Nc1c(C(=O)OC)[nH]c2ccccc12)c1ccc2c(c1)OCO2 > 76.9 µM
Cc1cccc(Cn2c(NCCO)nc3c2c(=O)n(C)c(=O)n3C)c1 > 76.9 µM
COC(=O)C(CCSC)NC(=O)C(NC(=O)C1CCC(C)CC1)C(C)C (centres undefined) > 76.9 µM
COc1ccc(CCNC(=O)c2cc3sccc3n2C)cc1OC > 76.9 µM
C=CCn1c(SCC(=O)Nc2ccc3c(c2)OCO3)nc2ccccc2c1=O > 76.9 µM
CCc1c(C(=O)NC2CCCC2)csc1C > 76.9 µM
CCCCCn1c(Br)nc2c1c(=O)n(CC(N)=O)c(=O)n2C > 76.9 µM
COc1ccc(N(CC(=O)NC(C)(C)C)S(=O)(=O)c2ccccc2)cc1OC > 76.9 µM
COc1cc(OC)c(C2=NOC(C(=O)O)C2)cc1Cl (centres undefined) > 76.9 µM
CC(=O)Nc1sc(C)c(C)c1CN1CCN(S(=O)(=O)c2ccccc2)CC1 > 76.9 µM
O=c1cc(CSc2nnc(COc3ccccc3)o2)c2ccccc2[nH]1 > 76.9 µM
Cn1c(CN2CCOCC2)nc2cc(NC(=O)c3ccc(F)cc3)ccc21 > 76.9 µM
CCc1ccc(-c2ccc(C(=O)O)cc2)nc1 > 76.9 µM
CC(=O)OC1CC(C)(C)N(OC(=O)c2ccc(N)cc2)C(C)(C)C1 > 76.9 µM
N#Cc1ccc2ccn(CC(=O)N3CCCc4ccccc43)c2c1 > 76.9 µM
O=S(=O)(c1ccc(N2CCN(c3ccc(F)cc3)CC2)cc1)N1CCCC1 > 76.9 µM
Clc1ccc(Cn2nnc(-c3ccc(N4CCOCC4)cc3)n2)cc1 > 76.9 µM
O=C(Nc1cccnc1)c1cnc2ccccc2n1 > 76.9 µM
COc1ccc(NC(=O)NC(C)c2ccncc2)cc1OC (centres undefined) > 76.9 µM
Cc1cc(-c2ccccc2N)n[nH]1 > 76.9 µM
C=CCOc1ccccc1/C=c1\sc2nc(=O)c(C)nn2c1=O > 76.9 µM
CCOC(=O)CNC(=O)Nc1cccc(Cl)c1C > 76.9 µM
O=c1[nH]cnc2scc(-c3cccs3)c12 > 76.9 µM
CCOC(=O)c1nnc(-c2ccccc2)o1 > 76.9 µM
Cc1cc(C)c2c(C)nn(C3CCCCC3)c2n1 > 76.9 µM
O=C1CCCN1CC(CN1CCOCC1)Sc1nnnn1-c1ccccc1 (centres undefined) > 76.9 µM
CCOC(=O)C(C)Sc1nc2c(cnn2-c2ccc(C)cc2)c(=O)[nH]1 (centres undefined) > 76.9 µM
CC1CCC(NC(=O)c2ccc(CS(=O)(=O)Cc3ccccc3F)o2)CC1 (centres undefined) > 76.9 µM
O=C(CN1CCN(c2ccccc2)CC1)Nc1ccccc1C(F)(F)F > 76.9 µM
CC(=O)Nc1cccc(NC(=O)CSc2nnnn2C)c1 > 76.9 µM
c1ccc(CCNC2=NCCCS2)cc1 > 76.9 µM
Cc1c2c(nc3c(C(=O)NC4CCCCC4C)cnn13)CCCC2 (centres undefined) > 76.9 µM
CCOc1cc(C(=O)NC)cc(OCC)c1OCC > 76.9 µM
O=C(NCc1cccs1)c1cc2c(s1)CCCC2 > 76.9 µM
COc1ccccc1CNC(=O)C1CCN(S(=O)(=O)N2CCCCC2)CC1 > 76.9 µM
CSc1ccccc1NC(=O)CN(c1ccccc1)S(=O)(=O)N(C)C > 76.9 µM
CC(C)(C)Sc1nc(O)cc(=O)[nH]1 > 76.9 µM
Cc1cccc(-c2nnn(CC/C(N)=N/O)n2)c1 > 76.9 µM
CCOc1ccc(CNC(=O)C2CCC(=O)N2C2CCCC2)cc1OC (centres undefined) > 76.9 µM
COc1ccc(C(=O)N2CCOCC2)cc1Br > 76.9 µM
O=C(O)C1C2C=CC3(O2)C1C(=O)N1c2ccccc2COC13 (centres undefined) > 76.9 µM
COc1ccccc1NC(=O)c1ccccc1-c1nc(-c2ccccc2OC)no1 > 76.9 µM
CCOC(=O)CSc1nnc(CNC(=O)c2ccc(S(=O)(=O)N3CCCC3)cc2)n1C > 76.9 µM
Cn1c(=O)c(C(=O)CN2CCOCC2)c(N)n(Cc2ccccc2)c1=O > 76.9 µM
O=c1[nH]c2ccc(Cl)cc2c(=O)n1Cc1ccco1 > 76.9 µM
COc1ccccc1CN(CC(=O)NCc1ccco1)C(=O)CNS(=O)(=O)c1ccccc1 > 76.9 µM
C1CCc2c(nc3nnnn3c2N2CCOCC2)C1 > 76.9 µM
Cc1ccc(-n2c(CNc3ccc(F)cc3)nnc2SCC(=O)NCc2ccco2)cc1 > 76.9 µM
COc1cc(C2=NOC(C(=O)Nc3ccc(C(C)=O)cc3)C2)cc(OC)c1OC (centres undefined) > 76.9 µM
Cc1ccc(C)c(-n2c(N)c(C(N)=O)sc2=S)c1 > 76.9 µM
COC(=O)c1c(-c2ccc(F)cc2)noc1N > 76.9 µM
COc1ccccc1N1CCN(C(=O)CCn2c(=O)[nH]c3ccsc3c2=O)CC1 > 76.9 µM
N#Cc1c(NC(=O)CN2CCOCC2)oc(-c2ccccc2)c1-c1ccccc1 > 76.9 µM
Cc1csc(NC(=O)CSc2nnc(-c3ccoc3C)n2CCc2ccccc2)n1 > 76.9 µM
Cc1ccc(N2CC(C(=O)NCc3cccs3)CC2=O)cc1 (centres undefined) > 76.9 µM
CCCn1nnc(NC(=O)c2cc(Br)ccc2OC)n1 > 76.9 µM
CN(CC(=O)N1CCN(c2ccccn2)CC1)S(=O)(=O)c1ccccc1 > 76.9 µM
Cc1nc2ccc(CCO)cc2s1 > 76.9 µM
CCOCCCn1c(=S)[nH]c2ncccc2c1=O > 76.9 µM
Cc1ccc(N2CCCCn3c2nc2c3c(=O)[nH]c(=O)n2C)cc1 > 76.9 µM
Cn1c(=O)c2c(nc(SCC(=O)NCC3CCCO3)n2C)n(C)c1=O (centres undefined) > 76.9 µM
Cc1ccc(CN2C3=NC(=O)CN3c3ccccc32)cc1 > 76.9 µM
CCCc1nc(NCc2ccco2)c(C#N)c2c1COC(C)(C)C2 > 76.9 µM
CCCC1(C(=O)OCC)NC(c2ccc(N(C)C)cc2)C2C(=O)N(c3ccc(F)cc3)C(=O)C21 (centres undefined) > 76.9 µM
COc1ccc2c(c1)c(C(O)CN1CCC3(CC1)OCCO3)c(C)n2C (centres undefined) > 76.9 µM
